Measured values as given in patent US12426598B2, “Method for controlling herbicide-resistant weed” (SUMITOMO CHEMICAL COMPANY, LIMITED, priority 2019, dated 2025).
Like-named read-outs stand apart in the source and are kept apart here.

Columns and labels:
[1] = tested on: PPO inhibitor-resistant weeds; experiment: Pot tests with crops in greenhouse (Examples 73 to 2304); conditions: Examples 145 to 288: as Examples 1 to 144, RoundupPowerMax added at 32 fluid ounce/acre (1,543 g/ha as glyphosate-potassium salt)
Procedure: (§1) In a plastic pot, palmer amaranth (Amaranthus palmeri) having an Arg128Met mutation in PPO2 is seeded. On the same day, compound X is applied to the surface of soil so that the application rate of the compound X is 10, 20, 40, or 80 g/ha and the spray liquid amount is 200 L/ha. The plastic pot is then placed in a greenhouse, and at 7 days after the application, soybeans are seeded, and further at 14 days after seeding the soybeans, the effect on the weeds and crop injuries on the soybeans are investigated.
(§2) In a plastic pot, palmer amaranth (Amaranthus palmeri) having an Arg128Met mutation in PPO2 and soybeans are seeded. On the same day, compound X is applied to the surface of soil so that the application rate of the compound X is 10, 20, 40, or 80 g/ha and the spray liquid amount is 200 L/ha. The soybeans are then cultivated in a greenhouse, and at 21 days after seeding, the effect on the weeds and crop injuries on the soybeans are investigated.
In a plastic pot, palmer amaranth (Amaranthus palmeri) having an Arg128Met mutation in PPO2 and soybeans are seeded. The soybeans are then cultivated in a greenhouse, and at 21 days after seeding, compound X is applied to the stem and leaf so that the application rate of the compound X is 10, 20, 40, or 80 g/ha and the spray liquid amount is 200 L/ha. […]

[2] = tested on: palmer amaranth having an Arg128Met mutation in PPO2
Procedure: as §1, §2
In a plastic pot, palmer amaranth (Amaranthus palmeri) having an Arg128Met mutation in PPO2 and soybeans are seeded. The soybeans are then cultivated in a greenhouse, and at 21 days after seeding, compound X is applied to the stem and leaf so that the application rate of the compound X is 10, 20, 40, or 80 g/ha and the spray liquid amount is 200 L/ha. Further, the soybeans are cultivated in the greenhouse, and at 14 days after the application of compound X, the effect on the weeds and crop injuries on the soybeans are investigated.

[3] = tested on: palmer amaranth containing an Arg128Met mutation in PPO2; experiment: Foliar spray pot test in greenhouse, herbicidal effect; conditions: 200 L/ha, rating 0 to 100

Structure (SMILES)	effect on the weeds [1]	effect on the weeds ([2]; Example 1: soil surface application on day of weed seeding, 10, 20, 40 or 80 g/ha, soybeans seeded 7 days after, assessed 14 days after seeding soybeans)	effect on the weeds ([2]; Example 2: soil surface application on day of seeding weed and soybeans, 10, 20, 40 or 80 g/ha, assessed 21 days after seeding)	effect on the weeds ([2]; Example 3: stem and leaf application 21 days after seeding, 10, 20, 40 or 80 g/ha, assessed 14 days after application)	Herbicidal effect ([3]; Example 2305: plant height 10 cm, sprayed 5 g/ha, 14 days after)	Herbicidal effect ([3]; Example 2306: plant height 30 cm, sprayed 20 g/ha, 7 days after)
CCOC(=O)COc1ccccc1Oc1nc(-n2c(=O)cc(C(F)(F)F)n(C)c2=O)c(F)cc1Cl [compound X]	effective control effect	effective control effect	effective control effect	effective control effect	100	95
CCOC(=O)COc1ncccc1Oc1nc(-n2c(=O)cc(C(F)(F)F)n(C)c2=O)c(F)cc1Cl [compound Y]	effective control effect					
